Out of some 350,000 compounds screened, about 260 (0.074%) were called active. Inconclusive results, whose numbers are uncertain, are shown with a selection of clear calls. The call rests on the fitted dose curve; in most records, active means well fitted inhibition curve with a large enough effect; inconclusive means small, poorly fitted or top-dose-only effect; inactive means no such curve, though single readings can be large or run the other way. Where the call is inconclusive, the potency comes from a doubtful curve fit.
biological target: Ferritin light chain (Equus caballus) (UniProt P02791); assay: qHTS Assay for Identification of Novel General Anesthetics; conditions: apoferritin/1-aminoanthracene competitive binding, fluorescence; activity change, negative = displacement: at 77.5 µM (top of the series); further: nearly all actives have a fitted effect of over 20% in size
UniProt P02791, sequence (P02791 whole entry, looked up): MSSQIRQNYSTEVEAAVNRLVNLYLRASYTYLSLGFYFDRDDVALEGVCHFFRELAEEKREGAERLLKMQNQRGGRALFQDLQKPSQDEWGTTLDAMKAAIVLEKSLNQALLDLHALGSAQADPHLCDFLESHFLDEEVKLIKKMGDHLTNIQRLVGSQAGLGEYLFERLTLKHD
How it was run: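 Horse-spleen apoferritin (10 uM) in 50% saturated 1-aminoanthracene in PBS was incubated 10 min at room temperature with compound. Fluorescence (ex 380, em 535 nm) was normalized to free and bound 1-AMA, with concentration-response fitted by a four-parameter Hill equation.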
On the % scale 0 is the no-effect control and ±100 the full control effect; potency means the concentration at half of the fitted maximal effect; tags describe the fitted curve by direction and shape.

Structure (SMILES)	Potency	activity change, negative = displacement
CC(C)(C)OC(=O)[C@H](Cc1ccccc1)NC(=O)c1nc[nH]c1C(=O)N1CCc2ccccc2C1	inconclusive: 15.8 µM [inhibitor, partial curve]	
Cc1cc(C)c(C#N)c(SCC(=O)c2ccc(Cl)cc2Cl)n1	inconclusive: 10 µM [inhibitor, partial curve]	
CC(/C=N/NC(=O)Cc1cc(=O)[nH][nH]1)=C\c1ccccc1	inconclusive: 39.8 µM [inhibitor, partial curve]	
NS(=O)(=O)c1cccc(NC(=O)COC(=O)CC2CC3CCC2C3)c1 (configuration not stated)	inconclusive: 7.94 µM [inhibitor, partial curve]	
CCN(CC)C(=S)SCC(=O)Nc1ccc(F)cc1	inconclusive: 28.2 µM [inhibitor, partial curve]	
CC(C)(C)NC(=O)NC(=O)COC(=O)CNC(=O)c1cc(Cl)cc([N+](=O)[O-])c1	inconclusive: 31.6 µM [inhibitor, partial curve]	
C[C@@H](CN(C)C)CN1c2ccccc2Sc2ccccc21	inactive	
N#CCc1c(C#N)c(N)nc(N2CCN(c3ccc(F)cc3)CC2)c1C#N	inconclusive: 22.4 µM [inhibitor, partial curve, poor fit]	
O=C(CNC(=O)C1CCCCC1)OCC(=O)c1ccc(Cl)s1	inconclusive: 22.4 µM [inhibitor, partial curve]	
CCN(CC)C(=O)CSC1=Nc2ccccc2C2=NC(c3ccccc3)C(=O)N12 (configuration not stated)	inconclusive: 7.08 µM [inhibitor, full curve, poor fit]	
CN1CCN(C(=O)c2cc(COc3ccc(F)cc3Cl)on2)CC1c1ccccc1 (configuration not stated)	inconclusive: 31.6 µM [inhibitor, partial curve]	
O=C(NCc1ccccc1Cl)c1cnc2sc(N3CCOCC3)nn2c1=O	inactive	
CCC1=C(OC(=O)N(CC)CC)N2C(=O)OC(=NCCc3c[nH]c4ccccc34)[C@]2(Cc2ccccc2)[C@H]2C1=CC[C@H]1C(=O)NC(=O)[C@H]12	inconclusive: 11.2 µM [inhibitor, partial curve]	
Cc1c(O)ccc2c1OCO2		inactive: -1.47% [at 15.3 µM]
CCCCCCSc1nc(O)c(C2OC(=O)c3c2ccc(OC)c3OC)c(=O)n1-c1ccccc1 (configuration not stated)	inconclusive: 31.6 µM [inhibitor, single point]	
Cc1nc(-c2ccc(S(=O)(=O)N3CCCN(CCc4ccccc4)CC3)s2)cs1	inactive	
CN(Cc1c(O)ccc2c1oc(=O)c1ccccc12)C1CCCCC1	inactive	
COc1ccc(-c2[nH]ncc2N=Nc2cc(C)cc(C)c2)cc1	inconclusive: 28.2 µM [inhibitor, partial curve]	
CC12CCC(=O)N1C(C(=O)Nc1cccc3ccccc13)CS2 (configuration not stated)	inconclusive: 50.1 µM [inhibitor, single point]	
Cc1csc(Nc2ccc(Cl)cc2)n1	inconclusive: 11.2 µM [inhibitor, partial curve]	
CC1(C)C(=O)OC(c2cc(Br)ccc2O)C(C)(C)C1=O (configuration not stated)	inconclusive: 35.5 µM [inhibitor, partial curve]	

Structure (SMILES)	Potency	activity change, negative = displacement
CCOc1ccc(CCNCc2c(C(=O)O)n(Cc3ccc(C)cc3)c3cc(OC)ccc23)cc1	inconclusive: 8.91 µM [inhibitor, full curve, poor fit]	
O=[N+]([O-])c1ccccc1S(=O)(=O)Nc1ccc2c(c1)OCCO2	inconclusive: 28.2 µM [inhibitor, single point]	
CC(C)(C)OC(=O)N1C2C=CC1C1=COCCN1C2=O (configuration not stated)	inactive	
Cc1ccc(N(Cc2cc3ccccc3[nH]c2=O)C(=O)c2ccco2)c(C)c1	inconclusive: 22.4 µM [inhibitor, partial curve]	
CCCCOc1ccc(C(=O)N/C(=C/C=C/c2ccccc2)C(=O)NCCCO)cc1	inconclusive: 28.2 µM [inhibitor, single point]	
Cn1cc([N+](=O)[O-])c(C(=O)Nc2ccn(C34CC5CC(CC(C5)C3)C4)n2)n1	inconclusive: 56.2 µM [inhibitor, single point]	
CC(=O)CSc1ncnc2c1oc1ccccc12	inconclusive: 39.8 µM [inhibitor, single point]	
Cc1cccc(NC(=O)c2sc3nc(-c4ccc(F)cc4)cn3c2C)n1	inconclusive: 44.7 µM [inhibitor, single point]	
CCN(CC(=O)Nc1ccc2c(c1)OCCO2)Cc1cc(=O)oc2c(C)c(C)ccc12	inconclusive: 20 µM [inhibitor, partial curve]	
COc1cccc(N2C(=O)CSC23C(=O)N(Cc2ccccc2)c2ccccc23)c1 (configuration not stated)	inconclusive: 25.1 µM [inhibitor, single point]	
COc1ccc(C(CNC(=O)c2cc3c(s2)CCCC3)N2CCOCC2)cc1 (configuration not stated)	inconclusive: 31.6 µM [inhibitor, partial curve]	
CCCCS(=O)(=O)N1C2=NC(C(=O)OC)=C(C(=O)OC)[C@@H]3N(C)c4ccc(OC)cc4[C@]23C[C@H]1C(=O)OC	inconclusive: 28.2 µM [inhibitor, single point]	
N#Cc1ccc(N=c2ssnc2Cl)cc1	inactive	
O=C(NCc1cccc(Cl)c1)c1cnn2c1NC(c1ccco1)CC2C(F)(F)F (configuration not stated)	inactive	
COc1cc(/C=C/C(=O)OCC(=O)N2CC3(C)CC2CC(C)(C)C3)ccc1O (configuration not stated)	inconclusive: 35.5 µM [inhibitor, partial curve]	
O=C(NCc1ccco1)C12CN(Cc3ccccc3)CC1C(c1ccc([N+](=O)[O-])cc1)=NO2 (configuration not stated)	inconclusive: 25.1 µM [inhibitor, partial curve]	
COc1ccc(-c2cc(C(=O)Nc3ccn(Cc4ccc(C)cc4)n3)no2)cc1OC	inactive	
CCOC(=O)c1cc(-c2ccc3c(c2)OCCO3)n[nH]1	inactive	
Cc1cc2ccccn2c1C(=O)c1ccc(S(=O)(=O)N(C)C)cc1	inconclusive: 35.5 µM [inhibitor, single point]	
N#C/C(=C/c1ccc(F)cc1)S(=O)(=O)c1ccccc1	inactive	
CCc1cccc2cc(C(O)CNC(C)(C)C)oc12 (configuration not stated)	inactive	

Source: PubChem BioAssay AID485281 (National Center for Advancing Translational Sciences (NCATS), 2010)
